# From PubChem BioAssay AID1345082 (National Center for Advancing Translational Sciences (NCATS), 2018)
# “And” between values parts separate entries of the source, which are not always exact repeats. Equal entries are not always repeated. Hit rate of the full screen: of about 94,000 compounds, about 4,000 (4.3%) were called active. Inconclusive means that the source gave no clear call. Such entries were picked first, then a sample of the others. Calls follow the shape of the dose curve; as a rule, active = well fitted inhibition curve with a large enough effect; inconclusive = small, poorly fitted or top-dose-only effect; inactive = no such curve, though single readings can be large or run the other way. Where the call is inconclusive, the potency comes from a doubtful curve fit.
# Assay: Cytotoxic Profiling in NIH 3T3 Cell Line of Diverse Libraries Using Quantitative High-Throughput Screening; also: nearly all actives have a fitted effect of over 55% in size
# Conditions: NIH 3T3 viability, CellTiter-Glo ATP luminescence, 48-72 h; activity change, negative = cytotoxicity: at 96.7 µM (top of the series) unless noted; series mostly up to 96.7 µM
# How it was run: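 First NIH 3T3 cells are plated at 400 cells/well; next compound is pinned in; then plates incubate 48 or 72 hr at 37 °C; finally CellTiter-Glo is added and luminescence read after 10 min.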
# % is scaled to controls: 0 for no effect and ±100 for the full control effect; potency is read from the fitted curve at half-maximal effect; tags tell the direction and shape of the fitted curve.
SMILES,Potency,"activity change, negative = cytotoxicity",outcome
COc1ccc(NC(=O)c2ccc(-c3ncc4cnc(C5=CCOCC5)cn34)cc2)cn1,active: 31.6 µM,,
CNC(=O)CCn1ncc2cc(OCc3ccccc3-c3cccc(C)c3)ccc21,active: 89.1 µM,,
O=C(C1CC1)N1CCC(c2nn(-c3ccccc3)c(=O)[nH]2)CC1,,inactive: -18.9% [at 138 µM],
O=C(NCCc1ccccc1)N1CCC(Oc2ccc(-c3noc(C4CC4)n3)cc2)C1 (configuration not stated),"inconclusive: 44.7 µM [inhibitor, partial curve, poor fit]",,
COc1ccc(NC(=O)c2ccc3c(c2)NC(C)(COc2ccccc2)CO3)cc1OC (configuration not stated),"inconclusive: 50.1 µM [inhibitor, full curve, poor fit]",,
CN(C)C(=O)NCc1cc2n(n1)CCN(Cc1cn[nH]c1-c1ccccc1)C2,,inactive: 3.85%,
CC1CCCC(C)N1C(=O)c1ccc2oc(-c3ccnc(Cl)c3)nc2c1 (configuration not stated),,inactive: -19%,
O=C(NC1CC1)c1ccc2nc(-c3ccnc(Cl)c3)oc2c1,"inconclusive: 56.2 µM [inhibitor, partial curve, poor fit]",,
Cc1ccc(Nc2ccc3c(n2)CN(C)C(=O)CO3)c(C)c1,"inconclusive: 50.1 µM [inhibitor, partial curve, poor fit]",,
COC(=O)CN1C(=O)N(CCc2ccccc2)C2(CCN(Cc3ccccn3)CC2)C1=O,,inactive: 3.68%,
CC(C)COC(=O)N[C@@H]1C[C@@H]2CO[C@H](c3ccccc3)C[C@@H]2C1,"inconclusive: 39.8 µM [inhibitor, partial curve, poor fit]",,
O=C(Nc1ccc(Cl)cc1)c1nc2c(o1)CCN(Cc1ccc3cn[nH]c3c1)CC2,"inconclusive: 35.5 µM [inhibitor, partial curve]",,
CN(C)c1ccc(CN2CCOC[C@H]2c2ncc(-c3ccc(F)cc3)[nH]2)cc1,"inconclusive: 89.1 µM [inhibitor, partial curve, poor fit]",,
Cc1nc(CN2C(=O)OC3(CCN(C(=O)Cc4ccc5c(c4)OCO5)CC3)C2(C)c2ccccc2)cs1 (configuration not stated),"inconclusive: 5.62 µM [inhibitor, full curve, poor fit]",,
Cc1ccc2c(n1)N(C)[C@H](CO)CCN(Cc1ccc(Cl)cc1)C2,"inconclusive: 112 µM [inhibitor, partial curve]",,
Cn1c(Cn2cccn2)nnc1C1CCCN(C(=O)c2ccc(=O)[nH]c2)C1 (configuration not stated),,inactive: -12.5%,
O=C1N2CCCC2CN1C1CCN(Cc2cccc(Cl)c2)CC1 (configuration not stated),,inactive: -4.35% [at 138 µM],
COc1cccc(C(=O)N2CCN(C(=O)c3nc4cccnc4n(Cc4ccccc4)c3=O)CC2)c1,,inactive: -27.1%,
Cc1ccccc1CNC(=O)CCc1ccnc(N2CCOCC2)c1,"inconclusive: 70.8 µM [inhibitor, single point]",,
CN(C)CCNC(=O)c1cnc2c(c1)N(Cc1ccccc1)CCC2,"inconclusive: 112 µM [inhibitor, single point]",,
Cc1ccc(-c2nnc3ccc(N4CCCC4)nn23)nc1,"inconclusive: 100 µM [inhibitor, partial curve, poor fit]",,
Cc1cc(OCCN(C)C)c(C)c2c1CC[C@@H]([C@H](C)C(=O)NCc1ccccc1)C2,active: 56.2 µM,,
N#Cc1ccc(CN2CCC3(C2)NC(=O)c2ccccc2O3)cc1 (configuration not stated),,inactive: 1.92% [at 138 µM],

SMILES,Potency,"activity change, negative = cytotoxicity",outcome
O=C1NC2(CCCN(C(=O)c3ccc(C(F)(F)F)cc3)C2)COc2ccccc21 (configuration not stated),"inconclusive: 50.1 µM [inhibitor, partial curve, poor fit]",,
CCCN(CC1CC1)C(=O)CCC1CCN(S(=O)(=O)c2ccccc2)CC1,"inconclusive: 14.1 µM [inhibitor, full curve]",,
COc1cccc(-c2cccc(C(=O)N3CCCC3C(=O)NCc3ccccc3)c2)c1 (configuration not stated),"inconclusive: 56.2 µM [inhibitor, partial curve, poor fit]",,
O=C(C[C@H]1NC(=O)c2ccccc2NC1=O)Nc1nnc(Cc2ccccc2)s1,,,inactive
CN(c1ccccc1)c1cc(=O)c2ccnc(-c3ccc(CO)cc3)c2o1,active: 8.91 µM,,
O=C(NCc1nnc2n1C(C(=O)O)CC2)c1ccc(F)cc1 (configuration not stated),,inactive: 2.19%,
CN1CCCCC(CC(=O)Nc2ccc(OC(F)(F)F)cc2)C1=O (configuration not stated),,inactive: 0.514%,
COCc1ccc2c(c1)c(OC(C)(C)C(=O)NCCCn1ccnc1)nn2Cc1cccc(OC)c1,"inconclusive: 10 µM [inhibitor, full curve, poor fit]",,
CCOc1ccc(C(=O)N[C@H]2CC[C@H]2NC2CCOCC2)cc1Cl,"inconclusive: 56.2 µM [inhibitor, partial curve, poor fit]",,
O=C(NCc1ccc(Cl)cc1)c1cn2cc(-c3cccc(C(F)(F)F)c3)sc2n1,"inconclusive: 50.1 µM [inhibitor, single point]",,
Cc1ccccc1CN1C[C@@H]2C[C@H]1C(=O)N(C)c1ccccc1O2,,inactive: -9.52% [at 138 µM],
COc1ccc(S(=O)(=O)N2CCCC(Cc3nncn3C)C2)cc1 (configuration not stated),,,inactive
CCNC(=O)C1CCN(Cc2nc(-c3cccc(Oc4ccccc4)c3)oc2C)C1 (configuration not stated),"inconclusive: 56.2 µM [inhibitor, partial curve, poor fit]",,
COc1ccccc1-c1cccc(C(=O)NC(C)Cc2cc(C)[nH]n2)c1 (configuration not stated),"inconclusive: 6.31 µM [inhibitor, partial curve, poor fit]",,
N#CC1CCN(C(=O)C2CCN(c3nccc(Nc4ccccc4Cl)n3)CC2)CC1,"inconclusive: 44.7 µM [inhibitor, partial curve, poor fit]",,
Cn1cc(CN2C[C@H](C(=O)Nc3ccccc3)C[C@H]2c2cccc(C(F)(F)F)c2)cn1,"inconclusive: 89.1 µM [inhibitor, partial curve]",,
CN(Cc1ccccc1)Cc1cc(CC2(NCc3ccccc3O)COC2)no1,"inconclusive: 100 µM [inhibitor, partial curve, poor fit]",,
Cc1ccc(S(=O)(=O)Nc2ccc(C)n(CC(=O)N3CCOCC3)c2=O)cc1,,,inactive
Cc1onc(-c2cnn(C)c2NCc2ccc(C#N)cc2)c1C(=O)NCC1CCOCC1,"inconclusive: 100 µM [inhibitor, single point]",,
COc1ccc(Cn2c(C3CCN(C(=O)c4ccc(C)c(F)c4)CC3)n[nH]c2=O)cc1,,inactive: -10.4%,
O=C1CCN(S(=O)(=O)c2ccccc2)CCCN(C(=O)c2ccco2)CCN1,,inactive: -3.03%,
CCOCCCNCc1ccc(-c2ccccc2)o1,,inactive: -18.6%,
CN(C)C(C(=O)N1CCC(O)(c2ccccc2)CC1)c1cccc(F)c1 (configuration not stated),,inactive: -18.1%,

SMILES,Potency,"activity change, negative = cytotoxicity",outcome
O=c1c2nc(NCc3ccccc3)ccc2ncn1Cc1ccccc1,active: 35.5 µM,,
O=C(NC1CCCN(c2ccnc3ccnn23)C1)c1ccccc1Cl (configuration not stated),,inactive: -33.8%,
OCC1CN(C2CCC2)CC12CCN(Cc1cc(F)ccc1F)CC2 (configuration not stated),"inconclusive: 44.7 µM [inhibitor, partial curve, poor fit]",,
COc1ccc(C(=O)NC[C@H]2O[C@H](Cc3cc(COc4ccccc4)on3)CC[C@@H]2O)cc1,"inconclusive: 89.1 µM [inhibitor, single point]",,
COc1ccc(C(=O)N2CCC3(CC2)CC(c2cccc(C(F)(F)F)c2)=NO3)cc1,"active: 22.4 µM and inconclusive: 20 µM [inhibitor, partial curve]",,
O=C1NC(=NC2CCCC2)C2(CCN(Cc3ccccc3)C2)N1c1cccnc1 (configuration not stated),"inconclusive: 35.5 µM [inhibitor, full curve, poor fit]",,
CC1=NS(=O)(=O)N(Cc2ccccc2)C=C1C(=O)OCc1noc(CC2CCCCC2)n1,"inconclusive: 11.2 µM [inhibitor, full curve]",,
Cc1n[nH]c(C)c1CCC(=O)NC1CCCc2c1[nH]c1c(Cl)cccc21 (configuration not stated),"inconclusive: 50.1 µM [inhibitor, partial curve, poor fit]",,
O=C(CC1=C2CCCCC2NC1=O)NCC1CC1 (configuration not stated),,inactive: -26.9%,
Cc1cccc([S+](=O)([O-])N2CCC3(CC2)OCCN(Cc2ccccc2)C3=O)c1,"inconclusive: 31.6 µM [inhibitor, partial curve, poor fit]",,
Cc1cc(C)c2[nH]c(C(=O)NCc3ccc(C(=O)N(C)C)o3)c(C)c2c1,"inconclusive: 79.4 µM [inhibitor, partial curve]",,
COc1ccc(C(=O)N2CCn3c(nn(-c4ccc(OC)cc4)c3=O)C2)cc1,"inconclusive: 39.8 µM [inhibitor, partial curve, poor fit]",,
CCn1cc(CN2CCCC(CNC(=O)c3cccc(OC)c3OC)C2)cn1 (configuration not stated),"inconclusive: 56.2 µM [inhibitor, partial curve, poor fit]",,
CC#CC(=O)N1CCCC(C(=O)Nc2cccc(-c3cccc(C)c3)c2)C1 (configuration not stated),"inconclusive: 63.1 µM [inhibitor, partial curve, poor fit]",,
NC(=O)Cc1c[nH]c2ncc(-c3ccc4c(c3)OCO4)cc12,active: 44.7 µM,,
CC(=O)c1cc(C(=O)NCc2c(C)ncc3c2CCNC3)[nH]n1,,inactive: 4.62%,
COc1ccc(C(=O)NC2CCCN(c3nc4ncccc4o3)C2)cc1 (configuration not stated),,inactive: -10.9%,
O=C1COCC2(CN(c3ccc(C(F)(F)F)cn3)C2)CN1c1cccnc1,"inconclusive: 56.2 µM [inhibitor, partial curve, poor fit]",,
COc1ccc(CCNC(=O)CC(c2cccc3c2OCO3)c2c[nH]c3ccccc23)cc1OC (configuration not stated),"inconclusive: 28.2 µM [inhibitor, partial curve, poor fit]",,
CCc1ncc(C(=O)NC(c2ccc(C)cc2)c2cccs2)cn1 (configuration not stated),"inconclusive: 44.7 µM [inhibitor, full curve, poor fit]",,
CCN1C(=O)C2(CCN(C(=O)COC)CC2)c2ccccc21,,inactive: -9.16%,
